Results on 40 sequences are retold here after PMC12820563, “FoxP3 forms a head-to-head dimer in vivo and stabilizes its multimerization on adjacent microsatellites”.

The other results are listed elsewhere or left out.

For this assay, the target named is T1, MBP-FoxP1dN (Mus musculus, UniProt P58462 326-579).
T1 sequence: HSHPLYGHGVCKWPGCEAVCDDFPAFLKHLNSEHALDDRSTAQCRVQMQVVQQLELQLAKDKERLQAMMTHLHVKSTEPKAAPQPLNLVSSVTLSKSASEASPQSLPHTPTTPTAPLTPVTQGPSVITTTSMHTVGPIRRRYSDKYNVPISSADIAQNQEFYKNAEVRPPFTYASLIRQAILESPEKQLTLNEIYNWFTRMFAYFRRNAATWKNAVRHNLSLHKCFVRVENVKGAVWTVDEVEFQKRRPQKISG
Briefly: PD-seq (MBP pull-down with sequencing); 20 mM Tris-HCl pH 7.5, 100 mM NaCl, 1.5 mM MgCl2, 0.4 uM protein, 0.1 uM dsDNA library, 30 min, room temperature, amylose pull-down; high values mean tight binding. The note with it: protein: recombinant; tags: His6-MBP; chain copies: 2; dsDNA, one strand shown. The gist of the method:
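Binding is the reads-per-million enrichment of pull-down relative to input, pooled across replicates. For this, 0.4 µM His6-MBP-tagged mouse FoxP3 or FoxP1 fragment lacking the N-terminus, made in E. coli, was incubated with 0.1 µM Klenow-filled double-stranded degenerate DNA library for 30 min at room temperature in Tris pH 7.5 buffer with NaCl and MgCl2. Complexes bound to amylose resin were washed three times before proteinase K released the DNA for PCR barcoding and Illumina sequencing.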
As for “GATGATTGTTCTCCCAGCTGATGAATTCCCAGTCTCGAGTAAACAAATTTTCCTAATCTTTCTGTTCAAGCGCCATCTAC”, the binding signal was 0.749 RPM ratio (pull-down/input).
“GATGATTGTTCTCCCAGCTGATGAATTCGGCGACTCGAGTAAACAAATTTTCCTAATCTTTCTGTTCAAGCGCCATCTAC”: the binding signal is 0.824 RPM ratio (pull-down/input).
Turning to “GATGATTGTTCTCCCAGCTGATGAATTGTTGAGCTCGAGTAAACAAATTTTCCTAATCTTTCTGTTCAAGCGCCATCTAC”, the binding signal was 1.02 RPM ratio (pull-down/input).
Next, “GATGATTGTTCTCCCAGCTGATGAATTCACTTTTTCGAGTAAACAAATTTTCCTAATCTTTCTGTTCAAGCGCCATCTAC”: 0.894 RPM ratio (pull-down/input); “GATGATTGTTCTCCCAGCTGATGAATTCGATACCTCGAGTAAACAAATTTTCCTAATCTTTCTGTTCAAGCGCCATCTAC”: 0.812 RPM ratio (pull-down/input).
As for “GATGATTGTTCTCCCAGCTGATGAATTATAAGACTCGAGTAAACAAATTTTCCTAATCTTTCTGTTCAAGCGCCATCTAC”, the binding signal was 0.953 RPM ratio (pull-down/input).
With “GATGATTGTTCTCCCAGCTGATGAATTGGAACTCTCGAGTAAACAAATTTTCCTAATCTTTCTGTTCAAGCGCCATCTAC” the figure was 0.757 RPM ratio (pull-down/input); with “GATGATTGTTCTCCCAGCTGATGAATTACATCACTCGAGTAAACAAATTTTCCTAATCTTTCTGTTCAAGCGCCATCTAC”, 1.1 RPM ratio (pull-down/input); with “GATGATTGTTCTCCCAGCTGATGAATTGGTTGAGTCGAGTAAACAAATTTTCCTAATCTTTCTGTTCAAGCGCCATCTAC”, 0.962 RPM ratio (pull-down/input).
Turning to “GATGATTGTTCTCCCAGCTGATGAATTAGGGGGGTCGAGTAAACAAATTTTCCTAATCTTTCTGTTCAAGCGCCATCTAC”, the binding signal is 0.706 RPM ratio (pull-down/input).
Next, “GATGATTGTTCTCCCAGCTGATGAATTTATGCTATCGAGTAAACAAATTTTCCTAATCTTTCTGTTCAAGCGCCATCTAC”: 1.29 RPM ratio (pull-down/input).
On to “GATGATTGTTCTCCCAGCTGATGAATTATTACTATCGAGTAAACAAATTTTCCTAATCTTTCTGTTCAAGCGCCATCTAC”, for which the binding signal was 1.21 RPM ratio (pull-down/input).
Turning to “GATGATTGTTCTCCCAGCTGATGAATTTTGCTAGTCGAGTAAACAAATTTTCCTAATCTTTCTGTTCAAGCGCCATCTAC”, the binding signal was 1.01 RPM ratio (pull-down/input).
With “GATGATTGTTCTCCCAGCTGATGAATTGCTGACTTCGAGTAAACAAATTTTCCTAATCTTTCTGTTCAAGCGCCATCTAC”, the binding signal is 1.04 RPM ratio (pull-down/input).
Next, “GATGATTGTTCTCCCAGCTGATGAATTTTTTCTATCGAGTAAACAAATTTTCCTAATCTTTCTGTTCAAGCGCCATCTAC”: 1.08 RPM ratio (pull-down/input); “GATGATTGTTCTCCCAGCTGATGAATTCTTGAACTCGAGTAAACAAATTTTCCTAATCTTTCTGTTCAAGCGCCATCTAC”: 0.854 RPM ratio (pull-down/input); “GATGATTGTTCTCCCAGCTGATGAATTTATAGCTTCGAGTAAACAAATTTTCCTAATCTTTCTGTTCAAGCGCCATCTAC”: 0.986 RPM ratio (pull-down/input).
Turning to “GATGATTGTTCTCCCAGCTGATGAATTGAAATGGTCGAGTAAACAAATTTTCCTAATCTTTCTGTTCAAGCGCCATCTAC”, the binding signal was 0.809 RPM ratio (pull-down/input).
Consider “GATGATTGTTCTCCCAGCTGATGAATTCAACAGATCGAGTAAACAAATTTTCCTAATCTTTCTGTTCAAGCGCCATCTAC”, for which the binding signal was 0.949 RPM ratio (pull-down/input).
For “GATGATTGTTCTCCCAGCTGATGAATTATATGGCTCGAGTAAACAAATTTTCCTAATCTTTCTGTTCAAGCGCCATCTAC”, the binding signal is 0.929 RPM ratio (pull-down/input).
With “GATGATTGTTCTCCCAGCTGATGAATTCTTTAATTCGAGTAAACAAATTTTCCTAATCTTTCTGTTCAAGCGCCATCTAC” the figure was 0.994 RPM ratio (pull-down/input); with “GATGATTGTTCTCCCAGCTGATGAATTAAGAATATCGAGTAAACAAATTTTCCTAATCTTTCTGTTCAAGCGCCATCTAC”, 1.04 RPM ratio (pull-down/input).
As for “GATGATTGTTCTCCCAGCTGATGAATTCACTCCTTCGAGTAAACAAATTTTCCTAATCTTTCTGTTCAAGCGCCATCTAC”, the binding signal was 0.804 RPM ratio (pull-down/input).
Regarding “GATGATTGTTCTCCCAGCTGATGAATTAGAATGCTCGAGTAAACAAATTTTCCTAATCTTTCTGTTCAAGCGCCATCTAC”, the binding signal is 1.19 RPM ratio (pull-down/input).
With “GATGATTGTTCTCCCAGCTGATGAATTTGCTAAATCGAGTAAACAAATTTTCCTAATCTTTCTGTTCAAGCGCCATCTAC” the figure was 1.13 RPM ratio (pull-down/input).
For the sequence “GATGATTGTTCTCCCAGCTGATGAATTGACGTATTCGAGTAAACAAATTTTCCTAATCTTTCTGTTCAAGCGCCATCTAC”, the binding signal is 1.26 RPM ratio (pull-down/input).
Turning to “GATGATTGTTCTCCCAGCTGATGAATTTTCGTCTTCGAGTAAACAAATTTTCCTAATCTTTCTGTTCAAGCGCCATCTAC”, the binding signal is 0.955 RPM ratio (pull-down/input).
On to “GATGATTGTTCTCCCAGCTGATGAATTACGTTCTTCGAGTAAACAAATTTTCCTAATCTTTCTGTTCAAGCGCCATCTAC”, for which the binding signal was 1.05 RPM ratio (pull-down/input).
For the sequence “GATGATTGTTCTCCCAGCTGATGAATTCACTCTTTCGAGTAAACAAATTTTCCTAATCTTTCTGTTCAAGCGCCATCTAC”, the binding signal is 0.866 RPM ratio (pull-down/input).
Next, “GATGATTGTTCTCCCAGCTGATGAATTAATATCTTCGAGTAAACAAATTTTCCTAATCTTTCTGTTCAAGCGCCATCTAC”: 0.953 RPM ratio (pull-down/input); “GATGATTGTTCTCCCAGCTGATGAATTTATGTAGTCGAGTAAACAAATTTTCCTAATCTTTCTGTTCAAGCGCCATCTAC”: 1.25 RPM ratio (pull-down/input).
As to “GATGATTGTTCTCCCAGCTGATGAATTCCATACCTCGAGTAAACAAATTTTCCTAATCTTTCTGTTCAAGCGCCATCTAC”, the binding signal is 0.835 RPM ratio (pull-down/input).
Consider “GATGATTGTTCTCCCAGCTGATGAATTTTGGATTTCGAGTAAACAAATTTTCCTAATCTTTCTGTTCAAGCGCCATCTAC”, for which the binding signal is 0.899 RPM ratio (pull-down/input).
Consider “GATGATTGTTCTCCCAGCTGATGAATTAGCCTCCTCGAGTAAACAAATTTTCCTAATCTTTCTGTTCAAGCGCCATCTAC”, for which the binding signal is 0.863 RPM ratio (pull-down/input).
With “GATGATTGTTCTCCCAGCTGATGAATTAACTTAATCGAGTAAACAAATTTTCCTAATCTTTCTGTTCAAGCGCCATCTAC” the figure was 0.934 RPM ratio (pull-down/input).
Regarding “GATGATTGTTCTCCCAGCTGATGAATTTTCCTTTTCGAGTAAACAAATTTTCCTAATCTTTCTGTTCAAGCGCCATCTAC”, the binding signal was 0.942 RPM ratio (pull-down/input).
As to “GATGATTGTTCTCCCAGCTGATGAATTCTGCTATTCGAGTAAACAAATTTTCCTAATCTTTCTGTTCAAGCGCCATCTAC”, the binding signal was 0.976 RPM ratio (pull-down/input).
As to “GATGATTGTTCTCCCAGCTGATGAATTGCAGCATTCGAGTAAACAAATTTTCCTAATCTTTCTGTTCAAGCGCCATCTAC”, the binding signal was 1.24 RPM ratio (pull-down/input).
“GATGATTGTTCTCCCAGCTGATGAATTACCGTTATCGAGTAAACAAATTTTCCTAATCTTTCTGTTCAAGCGCCATCTAC”: the binding signal was 1.13 RPM ratio (pull-down/input).
In the case of “GATGATTGTTCTCCCAGCTGATGAATTGTTACGTTCGAGTAAACAAATTTTCCTAATCTTTCTGTTCAAGCGCCATCTAC”, the binding signal was 1.25 RPM ratio (pull-down/input).
